According to PubChem BioAssay AID1768 (National Center for Advancing Translational Sciences (NCATS), 2009):
The campaign covered roughly 270,000 compounds. About 620 (0.23%) were called active. This list was built around the results that the source calls inconclusive (neither active nor inactive); the mix of calls is not that of the screen. Calls follow the shape of the dose curve; as a rule, active = well fitted inhibition curve with a large enough effect in the polarisation, with a control signal flat (not every such curve was filed as active); inconclusive = small, poorly fitted or top-dose-only effect, or effect the other way, or a change in a side signal; inactive = no such curve, though single readings can be large or run the other way; the % refers to the polarisation. A potency beside an inconclusive call is a rough fit, not a confirmed value. “Side channel” marks fits to a control or component signal instead of the main read-out.

target: Menin (Homo sapiens) (UniProt O00255); test: qHTS Assay for Inhibitors Targeting the Menin-MLL Interaction in MLL Related Leukemias: Competition With Texas Red Labeled MLL-derived Mutant Peptide; conditions: fluorescence polarization; FP activity change, negative = inhibition: at 61.6 µM (top of the series); as to FP activity change, negative = inhibition: % of control where 0% means no effect
Potency is read from the fitted curve at half-maximal effect; tags tell the direction and shape of the fitted curve or compound fluorescence and quenching.

Sequence of UniProt O00255 (O00255 whole entry, looked up): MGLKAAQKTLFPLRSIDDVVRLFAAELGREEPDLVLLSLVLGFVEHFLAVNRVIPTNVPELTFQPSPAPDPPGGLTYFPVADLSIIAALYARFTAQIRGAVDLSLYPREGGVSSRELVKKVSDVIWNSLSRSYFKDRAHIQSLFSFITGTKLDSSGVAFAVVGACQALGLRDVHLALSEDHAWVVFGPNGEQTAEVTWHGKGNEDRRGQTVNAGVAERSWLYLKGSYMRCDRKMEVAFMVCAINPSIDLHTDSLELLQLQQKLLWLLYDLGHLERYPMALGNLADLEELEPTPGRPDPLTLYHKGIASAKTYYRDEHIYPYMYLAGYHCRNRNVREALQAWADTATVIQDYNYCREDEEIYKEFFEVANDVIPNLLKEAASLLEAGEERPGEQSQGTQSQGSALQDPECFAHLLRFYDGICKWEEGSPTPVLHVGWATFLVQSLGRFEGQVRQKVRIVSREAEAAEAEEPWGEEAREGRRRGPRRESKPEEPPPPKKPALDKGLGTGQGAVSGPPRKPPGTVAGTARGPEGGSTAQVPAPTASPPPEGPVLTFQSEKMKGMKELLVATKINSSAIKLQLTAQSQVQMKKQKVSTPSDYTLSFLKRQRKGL

Q: `CN1C(=S)N(c2ccccc2)C(=O)/C1=C/c1cccs1` was tested. Which Potency did it give?
A: inconclusive: 17.8 µM [quencher, side channel, partial curve]

Q: With `CCOc1cc(-c2nc(-c3ccccc3)c(-c3cc([N+](=O)[O-])ccc3C)[nH]2)ccc1O` as the compound, how does the Potency read?
A: inconclusive: 25.1 µM [quencher, single point]

Q: `COc1ccc(C[C@@H]2CN3C(=NC[C@@H]3C)N2CCNC(=O)c2ccc(C)c(Br)c2)cc1` was tested. Which Potency did it give?
A: inconclusive: 10 µM [fluorescent, side channel, partial curve]

Q: Which Potency does the source give for `O=C(CSc1c2c(nc3cc(Cl)ccc13)CCCC2)NCCCN1CCOCC1` here?
A: inactive

Q: With `COc1cccc(C(=O)NCc2ccc3c(c2)cc(C)n3C)c1` as the compound, how does the Potency read?
A: inconclusive: 22.4 µM [fluorescent, side channel, single point]

Q: With `Cc1ccc(S(=O)(=O)Nc2ccc(OCC(=O)N3CCOCC3)cc2)c(C)c1NS(C)(=O)=O` as the compound, how does the Potency read?
A: inconclusive: 5.62 µM [inhibitor, full curve]

Q: How did the Potency turn out when `COc1cc(C(=O)Nc2sc3c(c2C(=O)O)CCC3)cc(OC)c1OC` was run?
A: inconclusive: 22.4 µM [quencher, side channel, partial curve]

Q: `O=C(Nc1nc(-c2cccc([N+](=O)[O-])c2)cs1)C(c1ccccc1)c1ccccc1` was tested. Which Potency did it give?
A: inconclusive: 12.6 µM [quencher, side channel, partial curve]

Q: For `CC(CC12CC3CC(CC(C3)C1)C2)NCc1ccccc1O` (stereo not given), which Potency is on record?
A: inconclusive: 7.94 µM [fluorescent, side channel, partial curve]

Q: How did the Potency turn out when `Cc1ccc(Cn2c(C(C)Nc3nc(-c4ccc(C)cc4)cs3)nc3cc(Cl)c(Cl)cc32)cc1` (stereo not given) was run?
A: inconclusive: 39.8 µM [quencher, side channel, single point]

Q: Which Potency does the source give for `COCCn1c(=O)c(-c2cccs2)nc2cnc(Oc3cccc(Cl)c3)nc21` here?
A: inconclusive: 3.55 µM [inhibitor, single point]

Q: How did the Potency turn out when `COc1ccc(CCNC(=O)C2CC(=O)N(c3ccc(C)cc3)C2)cc1OC` (stereo not given) was run?
A: inactive

Q: For `N#CCCn1nc(-c2ccc(Cl)cc2)cc1Nc1ccccc1NC(=O)C(F)(F)F`, which Potency is on record?
A: inconclusive: 14.1 µM [quencher, side channel, partial curve]

Q: For `CC(C)(C)C(=O)N1c2ccccc2CCc2ccccc21`, which Potency is on record?
A: inconclusive: 2.82 µM [inhibitor, full curve]

Q: `COc1cc(OC)c(NC2=CC(=O)C(=O)c3ccccc32)cc1Cl` was tested. Which Potency did it give?
A: inconclusive: 12.6 µM [quencher, side channel, partial curve]

Q: How did the Potency turn out when `CC(C)c1ccc(C(=O)N2CCCN(C(=O)c3ccc(C(C)C)cc3)CC2)cc1` was run?
A: inconclusive: 1.26 µM [fluorescent, side channel, full curve]

Q: `O=C(Nc1ncc(Cc2cccc([N+](=O)[O-])c2)s1)c1ccco1` was tested. Which Potency did it give?
A: inconclusive: 17.8 µM [quencher, side channel, partial curve]

Q: `O=C(Nc1ccc2ccccc2c1)Nc1ccc2snnc2c1` was tested. Which Potency did it give?
A: inconclusive: 11.2 µM [quencher, side channel, partial curve]

Q: How did the Potency turn out when `CS(=O)(=O)c1ccc(Cn2c3c(c4cc(F)cc(F)c42)CCC[C@H]3CC(=O)O)cc1` was run?
A: inconclusive: 11.2 µM [quencher, side channel, partial curve]

Q: For `Oc1ccc(Cl)cc1-c1cc(-c2ccccc2)n[nH]1`, which Potency is on record?
A: inconclusive: 14.1 µM [quencher, side channel, partial curve]

Q: For `COc1ccc(NC(=O)NCCCCc2ccccc2)c(OC)c1`, which Potency is on record?
A: inconclusive: 28.2 µM [inhibitor, single point]

Q: Which Potency does the source give for `FC(F)(F)c1ccc2c(c1)nc1n2CCCC1` here?
A: inconclusive: 10 µM [inhibitor, partial curve]

Q: Which Potency does the source give for `O=C(O)c1cc2cccc(S(=O)(=O)N3CCCCC3)c2cc1O` here?
A: inconclusive: 12.6 µM [quencher, side channel, partial curve]

Q: For `Cc1ccc([N+](=O)[O-])cc1N/C=C1\CCCCC1=O`, which Potency is on record?
A: inactive

Q: Which Potency does the source give for `Cc1cc(=O)oc2cc(OCc3cc4c(cc3Cl)OCO4)ccc12` here?
A: inactive

Q: With `Cc1ccc(C(=O)N/C(=C\c2cccs2)C(=O)NCCc2c[nH]c3ccccc23)cc1C` as the compound, how does the Potency read?
A: inconclusive: 39.8 µM [inhibitor, single point]

Q: Which Potency does the source give for `CCC(C)c1ccccc1N1CC(C(=O)Nc2ccccc2N2CCCC2)CC1=O` (stereo not given) here?
A: inconclusive: 12.6 µM [fluorescent, side channel, partial curve]

Q: For `O=C(NCC1CCCO1)c1cncc(Br)c1` (stereo not given), which Potency is on record?
A: inactive

Q: Which Potency does the source give for `CCOC(=O)c1sc2cc([N+](=O)[O-])cc(SCC(=O)OC)c2c1N` here?
A: inconclusive: 11.2 µM [quencher, side channel, partial curve]

Q: Which Potency does the source give for `CCCOc1cccc(C(=O)NC(=S)Nc2ccc(N3CCN(C)CC3)cc2)c1` here?
A: inactive

Q: Which Potency does the source give for `Cc1ccc(-c2cc(C(=O)NCc3ccccn3)c3ccccc3n2)cc1` here?
A: inactive

Q: How did the Potency turn out when `COC(=O)CNC(=O)c1cc(-c2ccncc2)nc2ccccc12` was run?
A: inconclusive: 5.01 µM [inhibitor, full curve]

Q: Which Potency does the source give for `Cc1c(C)c2ccc(OCC(=O)NCc3ccccn3)cc2oc1=O` here?
A: inconclusive: 11.2 µM [quencher, side channel, single point]

Q: Which Potency does the source give for `CCOC(=O)c1sc(=S)n2c1[nH]c(=O)c1ccc(C(=O)OC)cc12` here?
A: inconclusive: 8.91 µM [quencher, side channel, partial curve]

Q: With `Cc1ccc(S(=O)(=O)/N=C(/Nc2ccc([N+](=O)[O-])cc2)c2ccccc2)cc1` as the compound, how does the Potency read?
A: inconclusive: 25.1 µM [quencher, side channel, single point]

Q: For `O=C1/C(=C\c2cc([N+](=O)[O-])ccc2O)SC(=S)N1Cc1ccc(Cl)cc1`, which Potency is on record?
A: inconclusive: 15.8 µM [fluorescent, side channel, partial curve]

Q: For `O=C(NCCN1CCN(c2ccc([N+](=O)[O-])cc2)CC1)NCc1ccccc1`, which Potency is on record?
A: inactive

Q: How did the Potency turn out when `Cc1ccccc1Cc1c(C)nc2nc(SCC(=O)NCCCN3CCCC3)nn2c1C` was run?
A: inconclusive: 31.6 µM [fluorescent, side channel, single point]

Q: `COC(=O)c1ccc(O)c(Sc2cc(C(=O)OC)ccc2O)c1` was tested. Which Potency did it give?
A: inconclusive: 28.2 µM [quencher, partial curve]

Q: For `Cc1cccc(NC(=S)NCCN(C2CCCCC2)C2CCCC2)c1`, which Potency is on record?
A: inconclusive: 11.2 µM [fluorescent, side channel, partial curve]

Q: For `COc1ccc(/C=C2\C(=O)ON=C2c2cccc([N+](=O)[O-])c2)cc1`, which Potency is on record?
A: inconclusive: 28.2 µM [quencher, side channel, single point]

Q: How did the Potency turn out when `Cc1noc(NS(=O)(=O)c2ccc(N/C=C\C(=O)c3cccc4ccccc34)cc2)c1C` was run?
A: inconclusive: 1.78 µM [quencher, side channel, full curve]

Q: For `CCOC(=O)C1CCN(Cc2coc3c(Cl)cc(Cl)cc3c2=O)CC1`, which Potency is on record?
A: inconclusive: 11.2 µM [inhibitor, partial curve]

Q: With `Cc1cc2nn(-c3cccc4ccccc34)nc2cc1N` as the compound, how does the Potency read?
A: inconclusive: 12.6 µM [quencher, side channel, partial curve]

Q: For `CCc1ccc(CN(C)C(=O)c2cc(COc3ccc(OC)cc3Cl)on2)nc1`, which Potency is on record?
A: inconclusive: 7.94 µM [fluorescent, side channel, partial curve]

Q: `CCC(=O)NCCCCNC(=O)CC` was tested. Which Potency did it give?
A: inconclusive: 39.8 µM [inhibitor, single point]

Q: `Cc1ccc(NC(=O)CC2C(=O)N(Cc3ccccc3)C(=S)N2NC(=O)c2cccc(F)c2)c(C)c1` (stereo not given) was tested. Which Potency did it give?
A: inconclusive: 7.94 µM [quencher, side channel, full curve]

Q: With `COc1cc(/C=C2\SC(=S)N(CCC(=O)N3CCN(C)CC3)C2=O)cc(OC)c1OC` as the compound, how does the Potency read?
A: inconclusive: 3.16 µM [inhibitor, partial curve]

Q: How did the Potency turn out when `COC(=O)C1=C(C)N=C2SC(C)C(=O)N2C1c1ccc(C(=O)OC)cc1` (stereo not given) was run?
A: inconclusive: 5.01 µM [inhibitor, full curve, poor fit]

Q: For `NC(=O)c1c(Nc2nc3c(F)cccc3s2)sc2c1CCCC2`, which Potency is on record?
A: inconclusive: 11.2 µM [quencher, side channel, partial curve]

Q: With `Cc1nn(CC(=O)Nc2ccc(C(=O)N3CCCC3)cc2)c(=O)c2ccccc12` as the compound, how does the Potency read?
A: inconclusive: 0.631 µM [inhibitor, full curve, poor fit]

Q: Which Potency does the source give for `COC(=O)CSc1nnc(CNS(=O)(=O)c2ccc(C)cc2)n1C` here?
A: inactive

Q: For `Cc1cc(C)n(CNc2nc(C(F)(F)F)cs2)n1`, which Potency is on record?
A: inactive

Q: `c1ccc(-c2csc(Nc3ncccn3)n2)cc1` was tested. Which Potency did it give?
A: inconclusive: 11.2 µM [inhibitor, partial curve]

Q: Which Potency does the source give for `N#Cc1nc(-c2ccccc2F)oc1NCCc1ccccc1` here?
A: inconclusive: 39.8 µM [inhibitor, single point]

Q: For `CN(C)c1ccc(C(=S)N2CCN(C(=S)Nc3ccc(Cl)cc3)CC2)cc1`, which Potency is on record?
A: inconclusive: 7.94 µM [quencher, side channel, partial curve]

Q: `Cc1cc(C)cc(-n2nnc(C(=O)NCc3ccccc3)c2N)c1` was tested. Which Potency did it give?
A: inconclusive: 10 µM [inhibitor, partial curve]

Q: How did the Potency turn out when `CN(C)CCCN(C(=O)c1ccc2c(c1)CCCC2)c1nc2ccc(F)cc2s1` was run?
A: inactive

Q: How did the FP activity change, negative = inhibition turn out when `CC(C)(C)C1=Nn2c(nnc2-c2ccccn2)SC1` was run?
A: inactive: 0.727% [at 11.7 µM]

Q: `O=C(N/N=C/c1ccc([N+](=O)[O-])o1)c1cn(-c2ccccc2)nc1-c1ccc(F)cc1` was tested. Which Potency did it give?
A: inconclusive: 10 µM [quencher, side channel, partial curve]
